Data on 22 molecules can be found in paper PMC12136788.

Sequences and labels used below:
T1: UNK ZnF1-3 (human, UniProt Q9C0B0 31-174)
T1 sequence: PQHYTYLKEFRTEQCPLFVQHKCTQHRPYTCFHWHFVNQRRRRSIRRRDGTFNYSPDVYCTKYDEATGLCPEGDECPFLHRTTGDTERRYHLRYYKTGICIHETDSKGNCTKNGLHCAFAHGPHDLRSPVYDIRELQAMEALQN

B1: chr7:75932113:75932114:+_ENSG00000106211_ENST00000248553|hu_hu|motif|central (ssRNA)
RNA: GGGAGUUCUACAGUCCGACGAUCCUGCGACCACUCCUCCGGCAGCCGGGGCAGCCCGAAGGCCUGGUCGAAGAGGCGGCGGUGCGGGUACCAGUCGCGGAAGGGGUCCCAGCUGGGGCCCCGCAGGAGCGAGAAGGGGACGCGCAACAGAGGAUUGAGCAUCA
B2: 88893258_88893618_1652_CDS_ENSMUSG00000041263_ENSMUST00000052539|mouse|control|control (ssRNA)
RNA: GGGAGUUCUACAGUCCGACGAUCAUCCCCCAAUUGAGCCUUCUGAACCAAGUUCCUAGCAGCCCCAAAAUGCGAGAUGAUUUUGUCCACUGAAGCGCUGACAGCUAUCAGGAGACCUUUCUUCUGCUCCUGCAGCUGGCCAGUCAACAGAGGAUUGAGCAUCA
B3: chr17:48772226:48772227:-_ENSG00000154945_ENST00000285243|hu_mus|FALSE|FALSE (ssRNA)
RNA: GGGAGUUCUACAGUCCGACGAUCUAAAAUUGAACAAUUUGUUUAUAAAAGCAACAGAUUCCAGAGUUAUGUAAAAACCCUAAUAAUUUUCAAAAUAACCUUUAUCUUUGAUACAAAAAUAAAGAUGCUAACUCCUUUAGUUCACAACAGAGGAUUGAGCAUCA
B4: 103084259_103114241_1104_3pUTR_ENSMUSG00000033014_ENSMUST00000106860|mouse|control|control (ssRNA)
RNA: GGGAGUUCUACAGUCCGACGAUCAUUACACCAACUUGCUGGACGUCACCGUUGCUGCCCCCAGGGAUGGGCACGCUGAGCUGGCGCUCCGGCUCCGGCAGACAGCGCAGGCAGAAGGAGUGCAGGCAGGGGAGCAGCUUGGGCCAACAGAGGAUUGAGCAUCA
B5: chr12:39756943:39756944:-_ENSG00000139116_ENST00000544797|hu_mus|hu_hu_hu_mus_False|48_108 (ssRNA)
RNA: GGGAGUUCUACAGUCCGACGAUCGGUUUGGCUAUUACCCCCAAGGGAAUCCUGCAAGAGUCUUGUCAGCUUAGAGUCUCUGUAAGGGACAUGUGUGGCUCUCUUGCUCUUGUCCCCCAAGGCGCUGAUUACAUUCCCAAGAGCCAACAGAGGAUUGAGCAUCA
B6: chr5:128440902:128440903:+_ENSG00000066583_ENST00000173527|hu_mus|hu_hu_hu_mus_True|8_38 (ssRNA)
RNA: GGGAGUUCUACAGUCCGACGAUCUUGAACGGUGCUGCCAAGUCCUUUGGGGUAUUGUUCCGUUAUGAUAACUGGAAUCCCUAAGAUCCGAGCUCCUUGCAACAAUCUCUGUCCCACACUAAUGAUGUCCCCAAAAUAUUUGAUCAACAGAGGAUUGAGCAUCA
B7: chr14:76904540:76904541:+_ENSMUSG00000022010_ENSMUST00000022587|mus_mus|motif|central (ssRNA)
RNA: GGGAGUUCUACAGUCCGACGAUCAAAGAAAUGGAAAAAUGUCUCAGUUGGUAAACUCCUAGAUCCAUCGCCACUGGUCGGCACCAUUGGGAUUUCAUGCAAUUGCAGCCAAAUUAAAAAAACAGCCCCGUGGAAAAAAAAGAGCAACAGAGGAUUGAGCAUCA
B8: chr4:95690885:95690886:+_ENSMUSG00000028572_ENSMUST00000156910|mus_mus|mus_mus_mus_hu_False|78_108 (ssRNA)
RNA: GGGAGUUCUACAGUCCGACGAUCUUUAUUUUUAGAAAAAUACCAUGCUAAAAUAUUGUAAUUUUAAUAUUUUAUUUUACCAGAAGUCACAGGCAAGCAGACACUACAAGAAUAUAUGAAAAUGAAACUCAACAAUAUAACUGUCAACAGAGGAUUGAGCAUCA
B9: chr11:75505782:75505783:+_ENSMUSG00000017776_ENSMUST00000017920|mus_hu|motif|central (ssRNA)
RNA: GGGAGUUCUACAGUCCGACGAUCCGCCUCCUCCUGCCUGAGAAUCACUCCACUACCCUGCCUGGAUCUGGAAACUGGUUCGGUCAACGUUGUAGUGUCCAAAUAGUGUAUUUUGUAGAAUUCCAGUAAAGCAGGCAAUGAAUCCAACAGAGGAUUGAGCAUCA
B10: chr1:169100823:169100824:+_ENSG00000143153_ENST00000367816|hu_hu|motif|central (ssRNA)
RNA: GGGAGUUCUACAGUCCGACGAUCUUGUUCAAGACUAGUAGGUUUUUGUUUUUGUAUCUUUUUUUAACUUAUUAAAUGGCGGGUGGGAAAGAUUUGUGCUUGUGAUCAGCUCUUAACUUCAAUUUUUACAUCAAAACGUCCCUGCAACAGAGGAUUGAGCAUCA
B11: chr7:151048522:151048523:+_ENSG00000013374_ENST00000566856|hu_mus|hu_hu_hu_mus_True|98_98 (ssRNA)
RNA: GGGAGUUCUACAGUCCGACGAUCCUGUUUCUUAUUUAUGACAAUUUUGAUGUAAUUUUCUUGAAAUCCGAAAGUUUCAGCUAUUUGACACCUCAGGUCUCUACCAGUGACAUGCAAGCGGGUCUCCAACAAGCUUUUCUUAUCCAACAGAGGAUUGAGCAUCA
B12: chr3:179287964:179287965:+_ENSG00000136518_ENST00000429709|hu_hu|hu_hu_hu_mus_True|1_38 (ssRNA)
RNA: GGGAGUUCUACAGUCCGACGAUCCUUGAGUGGUGAGAUGGCCUCCAUGUUCUCCCUGGGCACGCGGAGGGCAUUGGUGUCUAUGUAGUAGGUGGGCCCGCCUUGUUUGCCUUUGUCACCAUCAAUCUCCAUCAUUGUGCUUCCCAACAGAGGAUUGAGCAUCA
B13: chr8:104447970:104447971:+_ENSG00000164934_ENST00000297579|hu_hu|hu_hu_hu_mus_False|8_78 (ssRNA)
RNA: GGGAGUUCUACAGUCCGACGAUCAUACACUUCCCUGCUUCGGCUCUUGUCCACAGGAAAGAUUCGAAUAGACUUAUCAAAGCUGGCAGACACAAAUUCCUUCCCAGUGGGAGAGUAGUCCACAUCAAGCACUGCAGACACGUGCAACAGAGGAUUGAGCAUCA
B14: chr1:163117127:163117128:-_ENSG00000143248_ENST00000313961|hu_mus|hu_hu_hu_mus_False|58_108 (ssRNA)
RNA: GGGAGUUCUACAGUCCGACGAUCUGCGGGUUAUUAUGUAACUCAACUCACAGGGCAACUUUUGGAAGCCUGACCAGAUUACUACUUGAUUAGCUCCUUAUAAAAUUCAGAGCGCACAAAGCGGGGCAGAGAAUCCUUCUCCAUCAACAGAGGAUUGAGCAUCA
B15: 5780690_5780810_951_3pUTR_ENSG00000011275_ENST00000425013|human|control|control (ssRNA)
RNA: GGGAGUUCUACAGUCCGACGAUCUUCUUGCAUUGGAAAGGCUGGACCUGGCUCUUCAUCAUCACUUGCUAACUGCUGGUCUUCAAACUCUCCUAGAGGAUGGGCAGGCUGAGGAGAAGAGGGGCCUGAAAUCCCACCUUGCUGCAACAGAGGAUUGAGCAUCA
B16: chr7:75932113:75932114:+_ENSG00000106211_ENST00000248553|hu_hu|hu_hu_hu_mus_False|48_48 (ssRNA)
RNA: GGGAGUUCUACAGUCCGACGAUCCUGCGACCACUCAUCGGGCAACCGGGGCACCCCGAAAGCUUGAUCGAAGAGGCGGCUGUGUGCGUACCAGUCGUCCCGGAAUGGUUCCCAGCUCGGGCUCCGCAGCAGCGAGAAGGGCACCAACAGAGGAUUGAGCAUCA
B17: 175229998_175231108_1140_3pUTR_ENSG00000164118_ENST00000503780|human|control|control (ssRNA)
RNA: GGGAGUUCUACAGUCCGACGAUCUUCCAAACAGUCUAACCUUUUCUCUAUCGAAGUCAGUUUCUUAAGAUUUUCUUGGCAUUCAGCAAGCAUAGUUUGUAGUGCAGUAAUCUCAGGAUUAACAUUUACAUCCUGUUGCUCAGCCAACAGAGGAUUGAGCAUCA
B18: 65840112_65840232_2121_3pUTR_ENSMUSG00000037822_ENSMUST00000139122|mouse|control|control (ssRNA)
RNA: GGGAGUUCUACAGUCCGACGAUCGCGGGUAAGACUUCUGGGUGGCCACAGCAAAAGAGGAAUCCUGUACCGUGUGUUGUUAAUUUGUUCAGAAUUUAACUUACCUGGUUAAGUCACUCCUUAGAAACACAAGUAGCUAAGAGGCAACAGAGGAUUGAGCAUCA
B19: 127872545_127873548_743_3pUTR_ENSMUSG00000025373_ENSMUST00000096386|mouse|control|control (ssRNA)
RNA: GGGAGUUCUACAGUCCGACGAUCCAGUUCAUCUUUGGGCAUCUCCAGGCCACAGCCCUGCUCACAGGUCACAGGCCGCUUCGGGUUGUGCUCACAGUCACUGAGGUGGGACAUGAGGUUGUCAAGCCUGACAACAGCACUGCACAACAGAGGAUUGAGCAUCA
B20: chr12:25358290:25358291:-_ENSG00000133703_ENST00000311936|hu_hu|FALSE|FALSE (ssRNA)
RNA: GGGAGUUCUACAGUCCGACGAUCGUACAGUUCAUGACAAAAAUAUUACAAAUUUUAGAUCACUUCACAGCACAUACUCCUAUAAACAUUUAAAAGUUAAUUUCAAUUAAAAGAGUGGUCAUUUUUAAUGUUUGAUAUGACCAACAACAGAGGAUUGAGCAUCA
B21: chr5:137520266:137520267:+_ENSG00000112984_ENST00000394894|hu_hu|FALSE|FALSE (ssRNA)
RNA: GGGAGUUCUACAGUCCGACGAUCAUCAAGGCCUGUGUCUGCCUUAGCCCCUUUCUCUAAGCUGGGGGAUACCUGAAGACUAUGUUCCUUGAUGAACGAGUGCAGGGAUGGGAAUCCCAGUUGCAUAGGUGGGGCAUGCACAAGCAACAGAGGAUUGAGCAUCA
B22: chr1:58468927:58468928:-_ENSMUSG00000026034_ENSMUST00000148330|mus_mus|mus_mus_mus_hu_False|18_98 (ssRNA)
RNA: GGGAGUUCUACAGUCCGACGAUCAAUUACUGAAAAAUGAAAGAUGUACCUUAGCUAUGUACUUAAUGAACCAAAUUACCCAAACAAAAUAAACAUGGCAAUAUAAAAAUGUUAAGAAAAUAACUUACUGUACAAAAUAACUUACAACAGAGGAUUGAGCAUCA

The other results are listed elsewhere or left out.

The target in the assay is T1, UNK ZnF1-3. Nature of the assay: nsRBNS (natural sequence RNA bind-n-seq); RBNS binding buffer (assumed for nsRBNS): 25 mM Tris pH 7.5, 150 mM KCl, 3 mM MgCl2, 0.01% Triton X-100, 500 ug/ml BSA, 20 U/ml SUPERase-In, 4 C; UNK is unkempt and MSI1 is Musashi-1; names of the RNAs are library labels; protein concentration not given here; high values mean tight binding.
B1 registered a binding signal of 0.648 enrichment R.

The molecule B2 showed a binding signal of 0.717 enrichment R.

Molecule B3 gave a binding signal of 1.67 enrichment R.

B4 returned a binding signal of 1.1 enrichment R.

Take B5: the binding signal came out at 0.672 enrichment R.

B6 returned a binding signal of 0.86 enrichment R.

The molecule B7 returned a binding signal of 2.65 enrichment R.

Turning to B8, the binding signal was found to be 2.77 enrichment R.

Regarding B9, the binding signal came to 1.08 enrichment R.

B10 registered a binding signal of 1.11 enrichment R.

Take B11: the binding signal came to 0.748 enrichment R.

In turn, B12 showed a binding signal of 0.593 enrichment R.

Turning to B13, the binding signal is 1.07 enrichment R.

B14 showed a binding signal of 0.872 enrichment R.

B15 showed a binding signal of 1.18 enrichment R.

Turning to B16, the binding signal was determined as 0.938 enrichment R.

In turn, B17 registered a binding signal of 0.961 enrichment R.

As to B18, the binding signal was 1.19 enrichment R.

Molecule B19 had a binding signal of 0.85 enrichment R.

B20 gave a binding signal of 1.93 enrichment R.

B21: the binding signal was found to be 0.903 enrichment R.

The molecule B22 returned a binding signal of 1.56 enrichment R.
